# According to the RNAGym collection of RNA variant scans (doi:10.7554/elife.90254):
# The source gives no read counts; variants with many changes may rest on few reads.
# B1: LINE1-full (parent)
# chain: UACGUAGGUGGUUUUCCCCUGAUAGUGCUAAGGGGGCCUGGAAGUUUGGACUGGGCAGAGCUCAACACAGCGUGGCAAAGUGGCUGUGGCUAGACUGCCUCUCUGGAUUCCUCGUCACUCAGCAGGGCAUCUCUGAGAGAAAUGCC
# Variants of: B1
# Assay: self-cleavage, relative activity (ratio to wild type); higher = more cleavage; in vitro, sequencing; the parent is a self-cleaving ribozyme
row,Variant,self-cleavage
1,G82A U119C G125A A138G A142C,2.52
2,G82U U119C A129C,1.96
3,G83A A129U A142G,0.76
4,G83A U85C U102G,0.04
5,G83A U96C U104C A129G,0
6,G83C U96C G97A U130C U143A,0.03
7,C84A A107G A117U,0.14
8,C84A C113U U134C,0.06
9,C84G C128U A142G,0.08
10,C84G U85A U91A A121U,0.01
11,C84U A92G A141G,0.04
12,C84U C133A A142G,0.07
13,C84U G89A A124G,0.04
14,C84U U91A A121C,0.28
15,C84U U100C A121U G126A A140G,0.21
16,U85A A92G U112A,0.05
17,U85A A92U U104C,0.12
18,U85A A94G U115A,0
19,U85A A107U A136G,0.09
20,U85A A107U U115A,0.08
21,U85A A129U U130C,0.16

row,Variant,self-cleavage
1,U85A A136G A140U,0.06
2,U85A C90U A124U,0.1
3,U85A C99A U119A,0.07
4,U85A U87G G114A U119C,0
5,U85A U91A U130C,0.09
6,U85A U96A G97A,0.07
7,U85A U96C A121G,0
8,U85A U100C U104C,0.21
9,U85A U108C U119C,0.12
10,U85A U109A A138G,0
11,U85A U112C U132C,0.15
12,U85A U115A A140G,0.04
13,U85C A92U U96C,0
14,U85C A107G A141G,0.16
15,U85C A117C A142G,0.14
16,U85C A121G A136U,0.22
17,U85C A121U A129G,0.17
18,U85C C98U A124G,0
19,U85C G88A A92G A141G,0.08
20,U85C G88A U100C U119A,0.02
21,U85C G89A A94G U109C G127A U130C,0.12

row,Variant,self-cleavage
1,U85C G89U U100C U130C,0
2,U85C G114A A138U,0.12
3,U85C U87C A142G,0.29
4,U85C U91C U102C A141U,0
5,U85C U100A A138G,0.06
6,U85C U100C A129U U132A,0.21
7,U85C U100C A141G,0.39
8,U85C U102C A140U,0.44
9,U85C U104C A117U,0.21
10,U85C U104C U109C,0
11,U85C U104C U143A,0.28
12,U85C U108C U134A A136G,0.33
13,U85C U108C U134C,0.21
14,U85C U109A A142G,0.09
15,U85C U112C A140C,0.08
16,U85C U112C U130C,0.4
17,U85C U115A G127A,0.1
18,U85C U115A U130A,0.2
19,U85C U132C A136G,0.17
20,U85C U134A A140U,0.12
21,U85G A92U U132A,0.17

row,Variant,self-cleavage
1,U85G U87A U96C,0
2,U85G U96C U119C,0.38
3,U85G U115G U119C,0
4,U85G U119C A129G C131A,0
5,G86A G106U A140G,0.1
6,G86A U108A A142G,0.04
7,G86U U104C A107U,0.02
8,U87A A117U U132C,0.1
9,U87A A121C A124U,0.02
10,U87A A124G U134C,0
11,U87A G97A A117G,0.08
12,U87A U96C U132C,0.12
13,U87A U102C U134C,0.12
14,U87A U104C A129G,0
15,U87A U119C U134A,0.01
16,U87A U130C U134A A136U,0.03
17,U87C A94G U143C,0
18,U87C A94U G137U,0.16
19,U87C A107U U115C,0
20,U87C A117G U132C A142G,0.35
21,U87C A121U A138G,0.35
